Results published in a collection of fitness landscapes (doi:10.1016/j.celrep.2020.107928).
Over roughly 81,000 sequences, “one-hybrid fitness for binding NBS DNA” has its median near -0.1; the highest 2% begin near 0.36. This is one part of the list.

B1: Caulobacter ParB omega fusion; a variant is named by its letters at X, in order, B8GW30 (parent)
chain: MESVVVGEPGMSEGRRGLGRGLSALLGEVDAAPAQAPGEQLGGSREAPIEILQRNPDQPRRTFREEDLEDLSNSIREKGVLQPILVRPSPDTAGEYQIVAGERAWRAAQRAGLKTVPIMVRELDDLAVLEIGIIENVQRADLNVLEEALSYKVLMEKFERTQENIAQTIGKSXSHVANXMRLLXLPDEVQSYLVSGELTAXHARAIAAAADPVALAKQIIEGGLSVRETEALARKAPNLSAGKSKGGRPPRVKDTDTQALESDLSSVLGLDVSIDHRGSTGTLTITYATLEQLDDLCNRLTRGI

Variants of: B1
Assay: one-hybrid fitness for binding NBS DNA (the Noc-binding site; scaled: cognate 1, non-cognate 0); higher = stronger binding
Details: with NBS DNA site
Summary of the method: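 Pre- and post-selection plasmids were Illumina-sequenced, three replicate libraries were pooled, and any variant with under 10 reads was removed. The libraries were Caulobacter ParB with four specificity codons randomised, selected in E. coli USO through a HIS3 reporter whose site is 19 bp from the promoter. Cells grew 48 hours at 37°C on M9 without histidine, with 0.1 mM IPTG and 5 mM 3-AT. Fitness is the log change in variant-to-wild-type read ratio, rescaled against cognate and non-cognate.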

Variant	one-hybrid fitness for binding NBS DNA
KRPW	≤ 0.2
HFHY	≤ 0.2
QLIK	≤ 0.2
TKPC	≤ 0.2
TGLE	≤ 0.2
WWPR	≤ 0.2
HANR	≤ 0.2
YKDR	0.512
ANSS	≤ 0.2
LPPD	≤ 0.2
DTAM	≤ 0.2
GTYT	≤ 0.2
APAD	≤ 0.2
TEQE	≤ 0.2
IIST	≤ 0.2
AKKN	≤ 0.2
IDNR	0.348
RLLP	≤ 0.2
VLWG	≤ 0.2
LIPG	≤ 0.2
VICS	≤ 0.2
TIMA	≤ 0.2
HLAC	≤ 0.2
GWIY	≤ 0.2

Variant	one-hybrid fitness for binding NBS DNA
KIDM	≤ 0.2
FNAR	≤ 0.2
NVYT	≤ 0.2
EATL	≤ 0.2
TTTA	≤ 0.2
AYST	≤ 0.2
HSQG	≤ 0.2
LGVD	≤ 0.2
ANLL	≤ 0.2
QFLM	≤ 0.2
HRGY	≤ 0.2
PRLA	≤ 0.2
WERR	≤ 0.2
IVPE	≤ 0.2
FSQS	≤ 0.2
QPVY	≤ 0.2
GMSI	≤ 0.2
QYDM	≤ 0.2
QSES	≤ 0.2
KALI	≤ 0.2
SRMS	≤ 0.2
SNVC	≤ 0.2
WPRG	≤ 0.2
IHIC	≤ 0.2

Variant	one-hybrid fitness for binding NBS DNA
WHSS	≤ 0.2
CTQI	≤ 0.2
NYFS	≤ 0.2
AQTG	≤ 0.2
TRMC	≤ 0.2
QALI	≤ 0.2
KRFL	≤ 0.2
CYPL	≤ 0.2
HLGW	≤ 0.2
LTDM	≤ 0.2
GVVR	≤ 0.2
SDDC	≤ 0.2
SIAQ	≤ 0.2
KHRD	≤ 0.2
TPMN	≤ 0.2
PTIR	≤ 0.2
SDFG	≤ 0.2
NNHR	≤ 0.2
AHSM	≤ 0.2
YHIT	≤ 0.2
NCRY	≤ 0.2
HTVS	≤ 0.2
GARQ	≤ 0.2
YYMV	≤ 0.2

Variant	one-hybrid fitness for binding NBS DNA
VPLA	≤ 0.2
EFSD	≤ 0.2
TLII	≤ 0.2
KNNH	≤ 0.2
CHVS	≤ 0.2
YPMT	≤ 0.2
ACKS	≤ 0.2
GLSC	≤ 0.2
REGV	≤ 0.2
RHRC	0.295
PDND	≤ 0.2
WTYS	≤ 0.2
LAHY	≤ 0.2
CWRN	≤ 0.2
QSYI	≤ 0.2
FQAS	≤ 0.2
PYEY	≤ 0.2
GNTL	≤ 0.2
GTDM	≤ 0.2
EWLW	≤ 0.2
HRLG	≤ 0.2
TGGD	≤ 0.2
CMRR	≤ 0.2
AHFD	≤ 0.2

Variant	one-hybrid fitness for binding NBS DNA
AVVW	≤ 0.2
MRAL	≤ 0.2
SPII	≤ 0.2
SHCC	≤ 0.2
SYTK	≤ 0.2
KIRA	≤ 0.2
TWRV	≤ 0.2
MLRR	≤ 0.2
QFPW	≤ 0.2
PDLL	≤ 0.2
LHKS	≤ 0.2
WFEC	≤ 0.2
QDNW	≤ 0.2
WDAS	≤ 0.2
VPLK	≤ 0.2
IYNS	≤ 0.2
EKSF	≤ 0.2
DRDS	≤ 0.2
QWNS	≤ 0.2
ELMM	≤ 0.2
RNHR	0.279
PYPL	≤ 0.2
LMWC	≤ 0.2
TTSD	≤ 0.2

Variant	one-hybrid fitness for binding NBS DNA
FVTR	≤ 0.2
NGQR	≤ 0.2
HNDV	≤ 0.2
PLCP	≤ 0.2
NFTP	≤ 0.2
TRNT	0.459
NGPG	≤ 0.2
DCDA	≤ 0.2
MMRV	≤ 0.2
RGIT	≤ 0.2
KAIY	≤ 0.2
KVTR	≤ 0.2
QCGL	≤ 0.2
PLQN	≤ 0.2
DPDA	≤ 0.2
QEHG	≤ 0.2
QSPK	≤ 0.2
ACPL	≤ 0.2
WWKC	≤ 0.2
WSPE	≤ 0.2
HPMT	≤ 0.2
LAVG	≤ 0.2
RPEL	≤ 0.2
VTTA	≤ 0.2

Variant	one-hybrid fitness for binding NBS DNA
LVWE	≤ 0.2
KNAP	≤ 0.2
YQKS	≤ 0.2
GSYF	≤ 0.2
FSFL	≤ 0.2
VIPA	≤ 0.2
ASEH	≤ 0.2
QNRS	0.352
PKAF	≤ 0.2
YPPA	≤ 0.2
IDRT	≤ 0.2
GYTF	≤ 0.2
DKAC	≤ 0.2
QFDT	≤ 0.2
RYWW	≤ 0.2
MIIL	≤ 0.2
SDGC	≤ 0.2
IMMD	≤ 0.2
RMHN	≤ 0.2
RVGI	≤ 0.2
QQRI	0.383
VMFK	≤ 0.2
RTKQ	0.356
VQAG	≤ 0.2

Variant	one-hybrid fitness for binding NBS DNA
YIIR	≤ 0.2
PRSF	≤ 0.2
SSER	≤ 0.2
MHVG	≤ 0.2
LHGF	≤ 0.2
PDSS	≤ 0.2
TYQN	≤ 0.2
GLET	≤ 0.2
QTDP	≤ 0.2
DLFS	≤ 0.2
FMNC	≤ 0.2
VIPT	≤ 0.2
WICG	≤ 0.2
IDPW	≤ 0.2
FRTY	≤ 0.2
KQPK	≤ 0.2
KQRH	≤ 0.2
CLAT	≤ 0.2
YHMG	≤ 0.2
WGPL	≤ 0.2
PEIL	≤ 0.2
SSTN	≤ 0.2
GRWS	≤ 0.2
CSVG	≤ 0.2

Variant	one-hybrid fitness for binding NBS DNA
DHSL	≤ 0.2
TRNP	≤ 0.2
EDRS	≤ 0.2
NRFI	≤ 0.2
TANV	≤ 0.2
PRNA	≤ 0.2
TRIT	≤ 0.2
VDYS	≤ 0.2
PISF	≤ 0.2
EPPT	≤ 0.2
VKPC	≤ 0.2
HLRG	≤ 0.2
APTF	≤ 0.2
LRLD	≤ 0.2
WDMS	≤ 0.2
RYSF	≤ 0.2
CFGK	≤ 0.2
GPDG	≤ 0.2
SPVC	≤ 0.2
ATFN	≤ 0.2
TRTC	≤ 0.2
QFTK	≤ 0.2
SDTW	≤ 0.2
PAAP	≤ 0.2

Variant	one-hybrid fitness for binding NBS DNA
YLAE	≤ 0.2
VFYW	≤ 0.2
NRGR	≤ 0.2
DMLG	≤ 0.2
KAET	≤ 0.2
WILL	≤ 0.2
QEPY	≤ 0.2
AIKS	≤ 0.2
PLQG	≤ 0.2
VVKG	≤ 0.2
PEWR	≤ 0.2
QICM	≤ 0.2
SRDR	≤ 0.2
PHGK	≤ 0.2
LFMC	≤ 0.2
HHKR	≤ 0.2
CWMR	≤ 0.2
QDRK	≤ 0.2
RGIC	≤ 0.2
EQSA	≤ 0.2
QLGY	≤ 0.2
QGSM	≤ 0.2
PAPI	≤ 0.2
RRMT	0.776

Variant	one-hybrid fitness for binding NBS DNA
SVLY	≤ 0.2
NKHC	≤ 0.2
GFRS	≤ 0.2
TWMR	≤ 0.2
QESP	≤ 0.2
VCDC	≤ 0.2
FYLT	≤ 0.2
GHAM	≤ 0.2
SADN	≤ 0.2
VPTT	≤ 0.2
MCHW	≤ 0.2
WPAT	≤ 0.2
VHAA	≤ 0.2
YMDW	≤ 0.2
PHIN	≤ 0.2
PISP	≤ 0.2
VGLV	≤ 0.2
LIES	≤ 0.2
GQHG	≤ 0.2
GNIR	≤ 0.2
TVIT	≤ 0.2
DCQT	≤ 0.2
YLWG	≤ 0.2
WFPH	≤ 0.2

Variant	one-hybrid fitness for binding NBS DNA
DPYV	≤ 0.2
LTQP	≤ 0.2
QNCK	≤ 0.2
EMPW	≤ 0.2
HFDP	≤ 0.2
DEYT	≤ 0.2
FTWR	≤ 0.2
RWCC	≤ 0.2
NRRG	≤ 0.2
VWGS	≤ 0.2
AFYG	≤ 0.2
RKSM	≤ 0.2
PTDG	≤ 0.2
LNVV	≤ 0.2
GRKG	≤ 0.2
TLLW	≤ 0.2
HKFR	≤ 0.2
KNLL	≤ 0.2
HGMT	≤ 0.2
WTQT	≤ 0.2
NASN	≤ 0.2
QSDA	≤ 0.2
VFQM	≤ 0.2
NTKV	≤ 0.2

Variant	one-hybrid fitness for binding NBS DNA
LPLT	≤ 0.2
AGWW	≤ 0.2
ECVR	≤ 0.2
SADG	≤ 0.2
CQCG	≤ 0.2
SLNG	≤ 0.2
DQWE	≤ 0.2
SMDS	≤ 0.2
EELS	≤ 0.2
QFCV	≤ 0.2
IIVS	≤ 0.2
RMMI	≤ 0.2
WWDI	≤ 0.2
KTQT	≤ 0.2
RIYV	≤ 0.2
PFKM	≤ 0.2
WKPE	≤ 0.2
LYGR	≤ 0.2
